Screen size: about 310,000 compounds; about 14,000 (4.5%) showed an effect of 50% or more. The effect is printed as a negative number. Some of the results follow.
What follows are compounds tested against human ether-à-go-go-related gene (hERG) potassium channel (human, UniProt Q12809) (assay: primary screen, population patch clamp on CHO cells stably expressing hERG).
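Note: peak tail current of the secondary pulse compared with the same well before compound.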

human ether-à-go-go-related gene (hERG) potassium channel, sequence (Q12809 whole entry, looked up): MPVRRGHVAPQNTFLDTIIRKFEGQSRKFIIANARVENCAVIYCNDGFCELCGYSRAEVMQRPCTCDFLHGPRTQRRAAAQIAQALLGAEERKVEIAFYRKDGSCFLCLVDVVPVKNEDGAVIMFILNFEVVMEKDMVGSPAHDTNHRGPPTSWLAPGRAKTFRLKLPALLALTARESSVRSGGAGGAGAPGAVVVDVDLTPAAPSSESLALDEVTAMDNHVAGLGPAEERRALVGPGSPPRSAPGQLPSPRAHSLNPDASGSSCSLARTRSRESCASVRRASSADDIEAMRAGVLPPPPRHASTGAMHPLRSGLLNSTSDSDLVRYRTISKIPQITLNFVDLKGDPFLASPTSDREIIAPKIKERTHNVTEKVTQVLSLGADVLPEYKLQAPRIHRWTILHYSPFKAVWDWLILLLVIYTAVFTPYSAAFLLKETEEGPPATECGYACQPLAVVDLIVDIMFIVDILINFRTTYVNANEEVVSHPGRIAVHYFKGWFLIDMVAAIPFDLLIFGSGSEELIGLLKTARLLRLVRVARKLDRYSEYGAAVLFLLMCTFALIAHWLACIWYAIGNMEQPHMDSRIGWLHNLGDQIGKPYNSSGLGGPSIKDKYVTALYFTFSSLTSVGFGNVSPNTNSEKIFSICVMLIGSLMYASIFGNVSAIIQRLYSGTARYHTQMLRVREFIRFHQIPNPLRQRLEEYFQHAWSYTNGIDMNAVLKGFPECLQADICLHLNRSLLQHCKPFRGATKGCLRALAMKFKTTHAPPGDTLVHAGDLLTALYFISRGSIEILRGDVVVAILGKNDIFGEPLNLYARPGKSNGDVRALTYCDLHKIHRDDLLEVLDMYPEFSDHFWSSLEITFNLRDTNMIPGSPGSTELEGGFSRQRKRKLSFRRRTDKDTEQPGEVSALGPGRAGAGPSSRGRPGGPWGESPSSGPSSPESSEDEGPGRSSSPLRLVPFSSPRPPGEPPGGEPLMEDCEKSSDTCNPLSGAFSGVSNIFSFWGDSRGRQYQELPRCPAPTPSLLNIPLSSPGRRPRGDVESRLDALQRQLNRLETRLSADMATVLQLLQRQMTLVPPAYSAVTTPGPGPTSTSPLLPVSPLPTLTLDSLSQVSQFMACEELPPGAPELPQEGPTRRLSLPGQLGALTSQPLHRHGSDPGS

Row | SMILES | hERG current change (%, negative = inhibition) at 10uM [%]
1 | CCCC(=O)N(CCN1CCOCC1)c1nc2c(OCC)cccc2s1.Cl | 9.08
2 | Cc1ccc(-n2nc(C)c3c2OC(N)=C(C#N)C3c2ccco2)cc1 (stereo not drawn) | 9.96
3 | CSc1nnc(-c2cccc(NC(=S)NN)c2)o1 | 14.7
4 | COc1cccc(/C=C(/C(=O)OCC(=O)NC2CCCCCCC2)c2ccccc2)c1 | -4.41
5 | CC(=O)Nc1ccc(C(=O)NNC(=O)c2cc([N+](=O)[O-])cc([N+](=O)[O-])c2)cc1 | 21.3
6 | COc1ccc(C2C(C#N)=C(/N=C/N3CCOCC3)OC3=C2C(=O)CC(C)(C)C3)cc1OC (stereo not drawn) | -13.5
7 | O=C(CCCC(=O)N(CC(=O)NC1CCCCC1)c1cccc(F)c1)Nc1ccccn1 | -55.3
8 | CCOC(=O)C1CCN(S(=O)(=O)c2ccc(Cl)s2)CC1 | -13.3
9 | Cc1ccc(NC(=O)Cc2ccc(Cl)c(Cl)c2)cc1S(=O)(=O)N(C)C | 7.88
10 | Cc1cc2c3c(c1)C1(SCC(=O)N1c1ccc(F)cc1)C(=O)N3C(C)(C)CC2C (stereo not drawn) | -14.7
11 | COc1ccccc1CC(NC(C)=O)C(=O)NC1CCN(S(=O)(=O)c2ccc(NC(C)=O)cc2)CC1 (stereo not drawn) | -4.33
12 | COc1ccccc1CC(=O)Nc1cc(S(=O)(=O)N2CCOCC2)ccc1N1CCOCC1 | -2.33
13 | CC(C)(C)c1cc(C(=O)C[n+]2ccc(C(=O)NCCCO)cc2)cc(C(C)(C)C)c1O.[Br-] | 3.46
14 | Cc1ccc(OCCSCc2nnc(NC(=O)Nc3cccc(Cl)c3)s2)cc1 | -2.22
15 | CCCOc1ccc(N2C(=O)C3C4C=CC(CC4)C3C2=O)cc1 (stereo not drawn) | 10.1
16 | Cc1ccc(C)c(N2CCN(C(=O)c3ccc(NS(=O)(=O)c4c(C)noc4C)cc3)CC2)c1 | 8.88
17 | Cc1ccc2[nH]c(=O)c(CN(CC3CCCO3)C(=O)c3ccncc3)cc2c1 (stereo not drawn) | 8.32
18 | O=C(N/N=C/c1ccc(Cl)cc1)Nc1ccccc1 | -14.2
19 | C[C@H](NC(=O)[C@@H]1Cc2ccccc2CN1C(=O)OC(C)(C)C)C(=O)NC1CCCCC1 | 15.8
20 | Cc1cccnc1N(C(=O)Nc1ccccc1)C1=NCC(C)(C)S1 | -4.5
21 | Nn1c(SCC(=O)NNC(=O)c2ccccc2)nnc1-c1ccccc1F | 3.47
22 | N#Cc1c(N)c(C(=O)c2ccccc2)n2ccccc12 | 10.7

Row | SMILES | hERG current change (%, negative = inhibition) at 10uM [%]
23 | COc1ccc(/C(O)=C2/C(=O)C(=O)N(CCN(C)C)C2c2ccccn2)cc1OC (stereo not drawn) | 14.5
24 | Cc1ccc(N(C(=O)Cc2c[nH]c3ccccc23)C(C(=O)NC2CCCCC2)c2ccco2)cc1 (stereo not drawn) | -6.34
25 | O=C1CC(c2ccc(F)cc2)c2cc3c(cc2N1)CCC3 (stereo not drawn) | -5.48
26 | Cc1ccc(S(=O)(=O)NCC(=O)OCC(=O)Nc2cccc(S(=O)(=O)NC3=NCCCCC3)c2)cc1C | -1.1
27 | CC(C)OCCCNC(=O)c1cccs1 | -9.39
28 | Cc1ccn(CC(=O)N2N=C(C(F)F)CC2(O)C(F)F)n1 (stereo not drawn) | 31
29 | Cn1c(SCC(=O)NC2CCCCC2)nnc1-c1ccccc1O | -41.3
30 | COc1ccc(C(CNC(=O)c2ccc(NS(=O)(=O)c3ccc(F)c(C)c3)cc2)N2CCOCC2)cc1 (stereo not drawn) | -20.8
31 | Cc1cc(/C(=N/O)C(C)(C)NO)ccc1Cl | 5.73
32 | CC(C)(C)c1ccc(NC(=O)C2=CN3CCS(=O)(=O)N=C3C=C2)cc1 | -20.6
33 | CCOc1ccc(OCCC(=O)OCC(=O)Nc2cc(OCC)c(N3CCOCC3)cc2OCC)cc1 | -15
34 | COc1ccc(-c2c(C)nn(Cc3ccccc3)c2N)cc1 | -8.57
35 | O=C(Nc1ccc2nsnc2c1)c1cccs1 | 9.43
36 | COc1ccc(/C=N/NC(=O)c2ccoc2C)cc1CN1CCN(c2ccc(F)cc2)CC1 | -76.8
37 | Cc1cc(NC(=O)C2CCN(S(=O)(=O)c3c(C)noc3C)CC2)ccc1Br | 19.2
38 | CC/C(=N/Nc1ccccc1)c1cnnc(SC)n1 | -0.704
39 | C/C(=N/NC(=O)c1cccs1)c1ccco1 | 10.5
40 | CCOC(=O)c1c(NC(=O)CCCC(=O)O)sc2c1CCC2 | 9.54
41 | O=C1CC(C(=O)NCc2ccccc2)C2(CCCC2)O1 (stereo not drawn) | 1
42 | O=C(CSc1nnc(CNC(=O)c2ccc(F)cc2)o1)NCc1ccc(F)cc1 | -9.46
43 | CCc1nc2ccc(C(=O)NCc3ccccc3)cc2nc1CC | 36.5
44 | CCC(=Nc1ccc2c(c1)CCC2)c1c(O)n(C)c(=O)n(C)c1=O | 18.2

Row | SMILES | hERG current change (%, negative = inhibition) at 10uM [%]
45 | O=C(CC(O)(c1ccccc1)C(F)(F)C(F)F)c1cccs1 (stereo not drawn) | 0.446
46 | CCCCN(C(=O)c1ccc2ccccc2c1)c1c(N)n(CCCC)c(=O)[nH]c1=O | 8.11
47 | COC(=O)Cn1cc(C(=O)C(C)(C)C)c2ccccc21 | 0.25
48 | CCc1ccc(NC(=O)c2cnc(SC)nc2C)cc1 | 1.07
49 | CC1=CC(C)(C)N2C(=O)C3(C(C#N)=C(N)Oc4cc(O)ccc43)c3c(C)c(C)cc1c32 (stereo not drawn) | -15.8
50 | Cc1c(/C=N/N=C2\CCC3C4CCc5cc(O)ccc5C4CCC23C)cnn1C (stereo not drawn) | 3.75
51 | CCCS(=O)(=O)c1ccc(COC(=O)c2cccc(NC(=O)C(C)C)c2)cc1 | -36
52 | CCOC(=O)N1CCN(CCC(=O)c2ccc(OC)cc2)CC1.Cl | -18.2
53 | CCSc1nnc(Cc2cc(=O)[nH]c(=O)[nH]2)n1-c1cccc(C)c1 | 22.3
54 | C=CCNC(=O)c1cc(-c2ccc3c(c2)OCO3)on1 | 9.19
55 | O=C(CN(Cc1ccccc1)C(=O)c1cc2c(s1)CCC2)NCc1cccs1 | -7.13
56 | CC(=O)c1cccc(S(=O)(=O)NCCC(=O)NC2CCCCCC2)c1 | -5.28
57 | CC(C)c1ccc(N=Nc2c(O)[nH]c(=O)[nH]c2=O)cc1 | 5.66
58 | CN1CCN(C(=O)CCc2ncc(C(F)(F)F)cc2Cl)CC1 | 11.7
59 | COCCNc1cc(C)c(C#N)c2nc3ccccc3n12 | -35.5
60 | O=C(Nc1nnc(-c2ccccn2)o1)c1cccc(Br)c1 | 7.26
61 | CC(/C=C1\SC(=S)N(CCC(=O)Nc2ccc(O)cc2)C1=O)=C\c1ccccc1 | 20.6
62 | CCCCN1C(N)=NC[C@H]1Cc1ccc(O)cc1 | 13.5
63 | COc1cc2c(cc1NC(=O)/C=C/c1ccccc1)oc1ccccc12 | 18.8
64 | COc1ccccc1Nc1nc(N2CCOCC2)nc(N2CCOCC2)n1.Cl | 16
65 | Fc1ccc(NC(=S)Nc2cccnc2)cc1Cl | 4.53
66 | COc1cc(C(=O)OCC(=O)N(CC(C)C)C2CCS(=O)(=O)C2)cc(OC)c1C (stereo not drawn) | -5.8

Row | SMILES | hERG current change (%, negative = inhibition) at 10uM [%]
67 | CC(c1ccccc1)n1cc(C(=O)NCc2ccncc2)nn1 (stereo not drawn) | -5.45
68 | O=C1/C(=C/c2ccc(F)cc2)SC(=S)N1CC(=O)N1CCCCC1c1cccnc1 (stereo not drawn) | -6.82
69 | CCN(Cc1ccccc1)S(=O)(=O)c1cn(C)cn1 | 12.6
70 | O=S(=O)(c1cccc(NC(=S)N2CCN(c3ccccc3)CC2)c1)C(F)F | -0.984
71 | O=C(Oc1ccc([N+](=O)[O-])cc1)N1CCC(N2CCCCC2)CC1 | -65.4
72 | CC(=O)c1cc(F)c(N2CCN(C(=O)COc3ccccc3F)CC2)cc1C | -7.84
73 | COc1ccc(NC(=S)NCC2CCN(c3ccc(OC)cc3)C2)cc1 (stereo not drawn) | -6.31
74 | CCCN(CCO)C1CCN(CCc2ccccc2)CC1 | 7.14
75 | S=C1NCCc2ccc(Cl)cc2C1c1ccccc1Cl (stereo not drawn) | 16.7
76 | CCn1c(Cn2nnc(-c3ccccc3)n2)nnc1SCc1ccc(Cl)c(Cl)c1 | -1.39
77 | O=C(Nc1ccc(-c2ccccc2)cc1)c1ccc2c(c1)S(=O)(=O)c1ccccc1C2=O | 7.7
78 | CC(C)(C)NC(=O)Cn1nnc(-c2cccs2)n1 | -4.07
79 | O=c1c2c(ncn1Cc1ccccc1)nc1n2CCC1 | 12.8
80 | C=C(C)CN(CC)C(=O)CSc1ccc(S(=O)(=O)N2CCN(Cc3ccccc3)CC2)cn1 | -30.4
81 | O=C(NC1CCCCC1)N1CCN(C2CCCCC2)CC1 | 2.63
82 | Nc1ccc(Nc2nc(-c3cc4ccccc4oc3=O)cs2)cc1 | -2.98
83 | CCOC(=O)c1ccc(-n2c(CN(CC)CC)nc3ccc([N+](=O)[O-])cc3c2=O)cc1 | 2.03
84 | Cc1ccc(CNC(=O)C(=O)NCCC2CCCCN2S(=O)(=O)c2ccc(C)cc2)cc1 (stereo not drawn) | -11.2
85 | CCOC(=O)C1CCN(C(=O)COc2ccc(S(=O)(=O)NC(C)C)cc2Cl)CC1 | -15.9
86 | O=C(c1ccc2c(c1)C(=O)N(Cc1ccco1)C2O)N1CCOCC1 (stereo not drawn) | 17.8
87 | COc1ccc(Br)cc1CNCCc1cccc(Cl)c1.O=C(O)C(=O)O | -44.7

Reference: publication PMC4336329 (PLoS ONE, 2015)
